Measured values reported in patent US20170029529A1 (Hoffmann-La Roche, published 2017).

Biological target: Her2 (recombinant Her2 antigen, Example 4) (human, UniProt P04626 partial chain, limits assumed)
Test: SPR ProteOn, Her2 on chip; pH 7.4 t0 dup2

B1: Trastuzumab variant VH:D98E/VL:N30S (antibody, V domains shown)
VH: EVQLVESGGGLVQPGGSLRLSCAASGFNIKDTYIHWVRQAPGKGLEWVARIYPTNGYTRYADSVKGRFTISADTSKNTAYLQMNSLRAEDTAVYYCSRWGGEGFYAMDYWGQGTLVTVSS
VL: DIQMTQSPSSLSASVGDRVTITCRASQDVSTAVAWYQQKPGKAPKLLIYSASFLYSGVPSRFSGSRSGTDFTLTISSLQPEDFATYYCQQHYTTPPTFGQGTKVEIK
Kd: 0.0946 nM
